This passage reports z-score results from PubChem BioAssay AID488969 (Vanderbilt High Throughput Screening Facility, 2010).

In all, about 110,000 compounds were measured (“z-score”: median about -0.1, highest 2% from about 2 on). The list shows a part of the results.

The target of this assay is Metabotropic glutamate receptor 8 (Rattus norvegicus) (UniProt P70579). The assay is described as follows: rat mGluR8 modulators via GIRK flux, primary screen, cell-based, thallium flux, HTS (AID 488969). The note with it: HEK293 rat mGluR8, GIRK (G protein-gated inwardly rectifying potassium channel) thallium flux, FluoZin2; at 10 µM; stronger effect = higher value; submaximal glutamate (EC20) added with thallium.
Sequence of UniProt P70579 (P70579 whole entry, looked up): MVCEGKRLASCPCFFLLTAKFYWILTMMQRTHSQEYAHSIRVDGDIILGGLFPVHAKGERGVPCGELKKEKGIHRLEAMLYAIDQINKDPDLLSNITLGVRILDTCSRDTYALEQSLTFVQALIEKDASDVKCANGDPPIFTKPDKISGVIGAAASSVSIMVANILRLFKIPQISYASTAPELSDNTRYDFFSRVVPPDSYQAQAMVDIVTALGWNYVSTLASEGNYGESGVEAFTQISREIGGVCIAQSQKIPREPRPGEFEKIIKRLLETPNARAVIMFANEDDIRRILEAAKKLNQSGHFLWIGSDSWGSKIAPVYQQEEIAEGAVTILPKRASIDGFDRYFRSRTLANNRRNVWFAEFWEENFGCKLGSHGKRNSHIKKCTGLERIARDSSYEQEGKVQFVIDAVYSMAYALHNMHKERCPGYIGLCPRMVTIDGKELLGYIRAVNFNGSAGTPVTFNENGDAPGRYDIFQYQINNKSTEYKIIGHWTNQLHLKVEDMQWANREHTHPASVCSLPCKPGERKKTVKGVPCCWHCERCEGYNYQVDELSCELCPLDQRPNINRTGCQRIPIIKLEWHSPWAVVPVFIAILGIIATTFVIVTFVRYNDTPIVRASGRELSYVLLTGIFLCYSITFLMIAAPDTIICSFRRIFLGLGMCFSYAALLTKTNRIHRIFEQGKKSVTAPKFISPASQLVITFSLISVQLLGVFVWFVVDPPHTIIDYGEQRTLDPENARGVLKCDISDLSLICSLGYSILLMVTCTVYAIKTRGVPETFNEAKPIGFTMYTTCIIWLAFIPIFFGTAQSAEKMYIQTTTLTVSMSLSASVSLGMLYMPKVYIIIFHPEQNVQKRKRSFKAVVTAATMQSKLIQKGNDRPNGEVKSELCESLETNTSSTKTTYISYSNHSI
Consider `COc1ccc(C)c(Cn2c(-c3nonc3N)nc3ccccc32)c1`, for which the z-score was -0.276.

`Cc1cc(C)c2c(N)c(S(=O)(=O)Cc3ccccc3)sc2n1` returned a z-score of -0.398.

`CC(C)(C)c1cc(C(=O)Nc2cccc3ccccc23)ccn1` yielded a z-score of -0.369.

In the case of `CSCC[C@H](NC(=O)CC(C)(C)C)c1nc2ccccc2[nH]1`, the z-score was -0.333.

On to `CCCC(=O)Nc1ccccc1NC(=O)C1CCCCC1`, for which the z-score came out at 0.215.

`CCOC(=O)c1oc2ccccc2c1CSc1nnnn1-c1ccccc1` showed a z-score of -0.727.

`CCOC(=O)N1CCN(c2ccc(C(F)(F)F)cn2)CC1` gave a z-score of -0.144.

Consider `C/C(=N\NC(=O)CSc1nnc(C)s1)c1ccc(O)cc1`, for which the z-score came out at 0.00192.

The compound `O=S(=O)(/N=C(/Nc1ccccn1)c1ccccc1)c1ccccc1` yielded a z-score of -0.0611.

In the case of `CC(C)CC(=O)Nc1ccc2oc(-c3cccnc3)nc2c1`, the z-score is -0.257.

Compound `O=C(N1CCN(c2ccccc2F)CC1)C1(c2cccs2)CCOCC1` came in with a z-score of -0.232.

`COc1ccc(N(C(=O)c2ccc(F)cc2)C2=CC3CCC(C2)N3C)cc1` (stereo not drawn) registered a z-score of 0.526.

With `CCOC(=O)CSC1=C(C#N)C(c2ccc(C)cc2)C2=C(CCCC2=O)N1` (stereo not drawn), the z-score was -0.561.

For the compound `Cc1ccccc1Cn1cnc2c(nnn2Cc2ccc(F)cc2)c1=O`, the z-score stood at 1.14.

For `Nc1nc(SCc2nc(-c3ccccc3)no2)[nH]c(=O)c1-c1ccccc1`, the z-score is -0.0707.

Turning to `Cc1ccc(/C=C/C(=O)NCc2cccs2)cc1`, the z-score is -0.0205.

As to `O=C1Cc2ccccc2Sc2cc(OCCCN3CCCCC3)ccc21`, the z-score amounted to 1.12.

`Cc1ccc(NC(C#N)c2ccccc2OCc2ccccc2)cc1` (stereo not drawn) had a z-score of -0.136.

Regarding `COc1ccccc1NC(=S)N1CCC(c2nc3cc(C)c(C)cc3[nH]2)CC1`, the z-score is -0.359.

The compound `O=C1c2ccccc2C(=O)N1CCCC(=O)N1CCc2ccccc21` gave a z-score of -0.331.

Take `CCC(CC)C(=O)Oc1c(Sc2ccccc2[N+](=O)[O-])c(C)nn1C(C)(C)C`: the z-score is -0.136.

The compound `CS(=O)(=O)NCCCNc1ccc(Cl)cc1[N+](=O)[O-]` gave a z-score of -0.243.

Turning to `CCN1CCN(c2ccc(NC(=O)Cc3ccccc3)cc2)CC1`, the z-score is 0.253.

With `N/C(=N\OC(=O)c1ccccc1Cl)c1cccnc1`, the z-score came out at 0.269.

`Cc1noc(C)c1COc1cccc(C(=O)OCC(=O)N2CC(=O)Nc3ccccc32)c1` returned a z-score of -0.576.

Turning to `CCCN(CC(=O)Nc1ccc(Cl)cc1Cl)C(=O)/C=C/c1cccc([N+](=O)[O-])c1`, the z-score came out at 0.198.

`CCCn1c(N)c(Sc2ccc(Cl)cc2)c(=O)n(CCC)c1=O` had a z-score of 1.12.

Compound `CCCCCn1c(=O)[nH]c2cc(C(=O)N3CCN(CC)CC3)ccc2c1=O` had a z-score of 0.0715.

`COC(=O)/C(=C/c1ccco1)NC(=O)c1ccccc1` registered a z-score of -0.194.

Consider `O=C(CSc1nc2ccccc2s1)Nc1cc(S(=O)(=O)N2CCOCC2)ccc1Cl`, for which the z-score is -0.715.

`CCN1CCCC1CNCc1cccc(OC)c1OCc1ccccc1F` (stereo not drawn) had a z-score of -0.177.

`COc1ccc(N=c2oc3c(OC)cccc3cc2C(=O)NCc2ccco2)c(OC)c1`: the z-score is -1.34.

Turning to `O=C(NCCCN1CCC(Cc2ccccc2)CC1)C1CCN(S(=O)(=O)N2CCOCC2)CC1`, the z-score came to 0.369.

`CC(C)CCNC(=O)NC(=O)COc1ccccc1C#N` gave a z-score of -0.198.

Regarding `Cc1ccc(S(=O)(=O)N(C)CCCC(=O)NCc2ccc3c(c2)OCO3)cc1`, the z-score is -0.289.

Turning to `CC1=CC2=NC(=O)/C(=C\c3cc(C)n(-c4ccccc4F)c3C)C(=N)N2O1`, the z-score is 0.13.

As for `Cc1nn2c(-c3ccc(Cl)cc3)ccnc2c1-c1ccccc1`, the z-score was -0.0976.

The compound `CCc1ccc(/C=C\C(=O)N2CCc3ccccc3C2)cc1` yielded a z-score of -0.105.

`Cn1nnnc1SCC(=O)NCc1ccccc1` came in with a z-score of 0.57.

In the case of `Cc1ccccc1C(=O)Nc1ccc(Br)c(C)n1`, the z-score was -0.245.

Compound `COc1ccccc1CNC(=O)c1cn(C)c(=O)c2cc(OC)c(OC)cc12` came in with a z-score of 0.415.

Turning to `Cc1ccc(C(=O)N/C(=C/C=C\c2ccccc2)C(=O)NCc2ccco2)cc1`, the z-score was -0.216.

`Oc1oc(-c2ccccc2)nc1C=Nc1cccc2ccccc12` registered a z-score of -0.00127.

As to `CCCCCn1c(=O)[nH]c2cc(C(=O)NCCN(CC)CC)ccc2c1=O`, the z-score turned out to be 0.754.

For the compound `COc1ccc(SCc2noc(C(=O)NC(C)C)c2C(=O)O)cc1`, the z-score was -0.0789.

`CCOC(=O)C1CCN(C(=O)CCc2ccccc2)CC1` came in with a z-score of 0.606.

Compound `COC(=O)c1ccc(C2CC(=O)Nc3cc(OC)c(OC)c(OC)c32)cc1` (stereo not drawn) gave a z-score of 0.259.

For `C=CCn1c(-c2cccs2)nc2nc3ccccc3nc21`, the z-score is -0.179.

Consider `CN1/C(=C\C(=O)C(F)F)C(C)(C)c2ccccc21`, for which the z-score was -0.183.

Consider `CC(=O)N1CCc2cc(Br)cc(S(=O)(=O)N3CCN(c4ccccn4)CC3)c21`, for which the z-score turned out to be 0.487.

Turning to `CCCC(=O)Nc1c(C)nn(C(=O)CCC)c1C`, the z-score is 1.38.

The compound `O=C(CNC(=O)c1ccco1)N/N=C/c1ccc(O)c([N+](=O)[O-])c1` had a z-score of -0.284.

In the case of `CC(=O)Nc1cccc(C(=O)OC(C(=O)c2ccc(C)cc2)c2ccccc2)c1` (stereo not drawn), the z-score worked out at 0.508.

In turn, `O=C(CSc1nc2cc(Cl)ccc2o1)NCCc1ccccc1` gave a z-score of -0.346.

On to `CCOC(=O)N1CCN(c2cc(=O)n(C3CCCCC3)c(=O)[nH]2)CC1`, for which the z-score turned out to be 0.0254.

In the case of `Cc1cc(C)n2nc(SCC(=O)N/N=C/c3ccccc3F)nc2n1`, the z-score turned out to be 0.0121.

The compound `O=C(CSc1ccc(Cl)cc1)Nc1cccc(-c2nnc(-c3ccco3)o2)c1` yielded a z-score of -0.176.

As to `S=C(NCCc1ccccc1)NCc1cccs1`, the z-score stood at 0.587.

`O=C(CCN1C(=O)c2ccccc2C1=O)NC(=S)Nc1cccc(Cl)c1` displayed a z-score of 0.175.

For `CCOc1ccccc1C(=O)NCCC(=O)O`, the z-score turned out to be 0.294.

Consider `CCCCCn1cnc2c(sc3nc4c(cc32)CSC(C)(C)C4)c1=O`, for which the z-score was 0.00817.

For the compound `O=C(Cn1nnc(-c2cccs2)n1)NCCc1ccccc1`, the z-score is -0.11.

Take `Cc1cc(=O)n(CCC(=O)O)c2ccccc12`: the z-score is -1.19.

In turn, `CCCn1nnnc1NCc1ccccc1OCc1cccs1` displayed a z-score of 0.0615.

As for `CS(=O)(=O)N(CCc1ccccc1)CC(=O)Nc1ccc(OCc2ccccc2)cc1`, the z-score was 1.43.

Turning to `O=C(NCC(c1ccco1)N1CCCC1)c1ccccc1F` (stereo not drawn), the z-score came to 0.262.

`Cc1ccc(S(=O)(=O)NNC(=O)c2snnc2C)cc1` came in with a z-score of 0.0819.

With `Cc1csc(NC(=O)CSc2nc(C)nc3c2c(=O)n(C)c(=O)n3C)n1`, the z-score is -0.477.

`COc1cccc(-n2c(C)nc3cc(C(=O)O)ccc32)c1` returned a z-score of -0.132.

Regarding `Cc1ccc(Cn2ccc(NC(=O)c3cc4nc(-c5ccco5)cc(C(F)(F)F)n4n3)n2)cc1`, the z-score stood at 0.0612.

With `CCOC(=O)CSc1nc2sc(C)c(C)c2c(=O)[nH]1`, the z-score is -0.485.

Take `Cc1cccn2cc(CSc3ccccc3N)nc12`: the z-score was -0.241.

`CCc1ccccc1N1CCN(S(=O)(=O)c2cc(OC)ccc2OC)CC1` gave a z-score of -0.412.
